Reference: paper PMC7363125
Positions count from the first letter of the chain named. These are yes or no findings as the source states them, for the method shown. Binding seen in cells or lysates may run through a third protein. Some entries that bind do so weakly or less than the wild type. Sequences can lack the tags named with a protein. Blank lines part the entries; values can stand above or below the binder they belong to.

Key:
[1] = biological target: T1, GST-PLEKHA7 WW1 + WW2 domain (1-162) H75A (human) (UniProt Q6IQ23); experiment: pull-down; 5 ug GST-PLEKHA7 WW bait (E. coli) coupled to GSH-Sepharose beads, washed, incubated 1 h at 4 °C with normalized HEK cell lysate holding PDZD11-HA or CFP-HA; immunoblot with anti-HA; only the target purified
T1 sequence: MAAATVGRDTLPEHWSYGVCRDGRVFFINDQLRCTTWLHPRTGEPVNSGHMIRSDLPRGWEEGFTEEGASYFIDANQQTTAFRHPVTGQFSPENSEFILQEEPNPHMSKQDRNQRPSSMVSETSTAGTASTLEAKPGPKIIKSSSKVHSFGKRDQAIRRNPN

[2] = biological target: T2, GST-PLEKHA7 WW1 + WW2 domain (1-162), mutation within the WW2 domain at position 61 (human) (UniProt Q6IQ23); experiment: as above
T2 sequence: T1 sequence with E61A, A75H

[3] = biological target: T3, GST-PLEKHA7 WW1 + WW2 domain (1-162), mutation within the WW2 domain at position 84 (human) (UniProt Q6IQ23); experiment: as above
T3 sequence: T1 sequence with A75H, H84A

[4] = biological target: T4, GST-PLEKHA7 WW1 + WW2 domain (1-162) T35A (human) (UniProt Q6IQ23); experiment: as above
T4 sequence: T1 sequence with T35A, A75H

[5] = biological target: T5, GST-PDZD11 full-length P26A + P27A (human) (UniProt Q5EBL8); experiment: pull-down; GST-PDZD11 baits (full-length, truncated, 1-30, mutants; E. coli) on GSH-Sepharose beads, incubated 1 h at 4 °C with insect cell lysate holding full-length PLEKHA7-His; immunoblot with anti-His; only the target purified
T5 sequence: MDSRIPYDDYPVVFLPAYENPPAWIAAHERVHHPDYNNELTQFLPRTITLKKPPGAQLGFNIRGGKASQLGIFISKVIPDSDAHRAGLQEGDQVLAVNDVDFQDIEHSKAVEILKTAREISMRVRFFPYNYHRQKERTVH

[6] = biological target: T6, GST-PDZD11 N-term 1-30 P21A,P22A (human) (UniProt Q5EBL8); experiment: as above
T6 sequence: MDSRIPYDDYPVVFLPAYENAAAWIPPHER

[7] = biological target: T7, GST-PDZD11 full-length (residues 1-140), WT (human) (UniProt Q5EBL8); experiment: as above
T7 sequence: T5 sequence with A26P, A27P

[8] = biological target: T8, GST-PDZD11 full-length P16,21,22A (human) (UniProt Q5EBL8); experiment: as above
T8 sequence: T5 sequence with P16A, P21A, P22A, A26P, A27P

[9] = biological target: T9, GST-PDZD11 full-length P16,21,22,26,27A (human) (UniProt Q5EBL8); experiment: as above
T9 sequence: T5 sequence with P16A, P21A, P22A

[10] = biological target: T10, GST-PDZD11 Δ4 (deletion of 4 N-terminal residues of full-length PDZD11) (human) (UniProt Q5EBL8); experiment: as above
T10 sequence: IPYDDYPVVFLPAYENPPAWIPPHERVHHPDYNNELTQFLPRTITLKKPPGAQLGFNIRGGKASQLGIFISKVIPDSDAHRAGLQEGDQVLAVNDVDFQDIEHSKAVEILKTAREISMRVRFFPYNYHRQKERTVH

binding [1]: binds | binding [2]: binds | binding [3]: binds | binding [4]: binds
B1: PDZD11-HA (human) full-length (protein, UniProt Q5EBL8 1-140)
chain: T5 sequence with A26P, A27P

binding [5]: binds | binding [6]: binds | binding [7]: binds | binding [8]: no binding | binding [9]: no binding | binding [10]: binds
B2: PLEKHA7-His, full-length (protein, UniProt Q6IQ23 1-1121)
chain: MAAATVGRDTLPEHWSYGVCRDGRVFFINDQLRCTTWLHPRTGEPVNSGHMIRSDLPRGWEEGFTEEGASYFIDHNQQTTAFRHPVTGQFSPENSEFILQEEPNPHMSKQDRNQRPSSMVSETSTAGTASTLEAKPGPKIIKSSSKVHSFGKRDQAIRRNPNVPVVVRGWLHKQDSSGMRLWKRRWFVLADYCLFYYKDSREEAVLGSIPLPSYVISPVAPEDRISRKYSFKAVHTGMRALIYNSSTAGSQAEQSGMRTYYFSADTQEDMNAWVRAMNQAAQVLSRSSLKRDMEKVERQAVPQANHTESCHECGRVGPGHTRDCPHRGHDDIVNFERQEQEGEQYRSQRDPLEGKRDRSKARSPYSPAEEDALFMDLPTGPRGQQAQPQRAEKNGMLPASYGPGEQNGTGGYQRAFPPRTNPEKHSQRKSNLAQVEHWARAQKGDSRSLPLDQTLPRQGPGQSLSFPENYQTLPKSTRHPSGGSSPPPRNLPSDYKYAQDRASHLKMSSEERRAHRDGTVWQLYEWQQRQQFRHGSPTAPICLGSPEFTDQGRSRSMLEVPRSISVPPSPSDIPPPGPPRVFPPRRPHTPAERVTVKPPDQRRSVDISLGDSPRRARGHAVKNSSHVDRRSMPSMGYMTHTVSAPSLHGKSADDTYLQLKKDLEYLDLKMTGRDLLKDRSLKPVKIAESDTDVKLSIFCEQDRVLQDLEDKIRALKENKDQLESVLEVLHRQMEQYRDQPQHLEKIAYQQKLLQEDLVHIRAELSRESTEMENAWNEYLKLENDVEQLKQTLQEQHRRAFFFQEKSQIQKDLWRIEDVTAGLSANKENFRILVESVKNPERKTVPLFPHPPVPSLSTSESKPPPQPSPPTSPVRTPLEVRLFPQLQTYVPYRPHPPQLRKVTSPLQSPTKAKPKVEDEAPPRPPLPELYSPEDQPPAVPPLPREATIIRHTSVRGLKRQSDERKRDRELGQCVNGDSRVELRSYVSEPELATLSGDMAQPSLGLVGPESRYQTLPGRGLSGSTSRLQQSSTIAPYVTLRRGLNAESSKATFPRPKSALERLYSGDHQRGKMSAEEQLERMKRHQKALVRERKRTLGQGERTGLPSSRYLSRPLPGDLGSVC
